According to the supplement of paper PMC4604168 (melanoma cell lines):
Some of the results follow. Repeats are few or missing, and single values can be far off.

Columns and labels:
Assay in all cases: cell count relative to DMSO control; melanoma cells; higher = more viable cells
Details in all cases: library dose: low library concentration; 72 h
MZ2-MEL = system: MZ2-MEL
MeWo = system: MeWo
RPMI7951 = system: RPMI7951
RVH-421 = system: RVH-421
SkMel28 = system: SkMel28
SkMel2 = system: SkMel2
SkMel30 = system: SkMel30
UACC62 = system: UACC62
SkMel5 = system: SkMel5
UACC257 = system: UACC257
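Also: cell number obtained by counting DAPI-stained nuclei in high-throughput microscope images with image analysis software, screen run in 1,536-well plates.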

CS(=O)(=O)CCNCc1ccc(-c2ccc3ncnc(Nc4ccc(OCc5cccc(F)c5)c(Cl)c4)c3c2)o1 [lapatinib] + Nc1ncn([C@H]2C[C@H](O)[C@@H](CO)O2)c(=O)n1 [decitabine] (first compound 0.8 µM, partner dose 0.1 µM)
cell count (MZ2-MEL): 83.3%
cell count (MeWo): 106%
cell count (RPMI7951): 92.9%
cell count (RVH-421): 91.5%
cell count (SkMel28): 81.2%
cell count (SkMel2): 101%
cell count (SkMel30): 108%
cell count (UACC62): 85.3%

CS(=O)(=O)CCNCc1ccc(-c2ccc3ncnc(Nc4ccc(OCc5cccc(F)c5)c(Cl)c4)c3c2)o1 [lapatinib] + Nc1cccc2c1CN(C1CCC(=O)NC1=O)C2=O [lenalidomide] (first compound 0.8 µM, partner dose 1 µM)
cell count (MeWo): 99.6%
cell count (RPMI7951): 89.8%
cell count (RVH-421): 94.9%
cell count (SkMel28): 93.7%
cell count (SkMel2): 97.1%
cell count (SkMel30): 87.2%
cell count (UACC62): 106%

C[C@@H](Oc1cc(-c2cnn(C3CCNCC3)c2)cnc1N)c1c(Cl)ccc(F)c1Cl [Crizotinib] + COc1cc(Nc2ncc(F)c(Nc3ccc4c(n3)NC(=O)C(C)(C)O4)n2)cc(OC)c1OC [Tamatinib] (first compound 0.2 µM, partner dose 0.4 µM)
cell count (MeWo): 80.3%
cell count (RPMI7951): 91.4%
cell count (RVH-421): 100%
cell count (SkMel28): 74.7%
cell count (SkMel30): 87.8%
cell count (SkMel5): 84.1%
cell count (UACC257): 64.1%
cell count (UACC62): 67.4%

CN1CCN(c2ccc3nc(-c4c(N)c5c(F)cccc5[nH]c4=O)[nH]c3c2)CC1 [Dovitinib] + Nc1ccn([C@@H]2O[C@H](CO)[C@@H](O)C2(F)F)c(=O)n1 [gemcitabine] (first compound 0.1 µM, partner dose 0.0004 µM)
cell count (MeWo): 85.1%
cell count (RPMI7951): 88%
cell count (RVH-421): 110%
cell count (SkMel28): 75.5%
cell count (SkMel30): 46.1%
cell count (UACC62): 82%

C[C@@H](Oc1cc(-c2cnn(C3CCNCC3)c2)cnc1N)c1c(Cl)ccc(F)c1Cl [Crizotinib] + COCC[n+]1c2c(n(Cc3cnccn3)c1C)C(=O)c1ccccc1C2=O [YM155] (first compound 0.2 µM, partner dose 0.0004 µM)
cell count (MeWo): 92%
cell count (RPMI7951): 86.6%
cell count (RVH-421): 133%
cell count (SkMel28): 96.2%
cell count (SkMel30): 98.5%
cell count (UACC62): 101%

C=CCNC1=C2C[C@@H](C)C[C@H](OC)[C@H](O)[C@@H](C)/C=C(\C)[C@H](OC(N)=O)[C@@H](OC)/C=C\C=C(/C)C(=O)NC(=CC1=O)C2=O [Tanespimycin] + O=C(Nc1cccc(Cl)c1)Nc1ncc(CCNc2ncnc3ccsc23)s1 [SNS314] (first compound 0.002 µM, partner dose 0.0008 µM)
cell count (MeWo): 93.6%
cell count (RPMI7951): 82.7%
cell count (RVH-421): 106%
cell count (SkMel28): 96%
cell count (SkMel2): 95.4%
cell count (SkMel30): 92.9%
cell count (SkMel5): 99.8%
cell count (UACC257): 75.7%
cell count (UACC62): 102%

C[C@@H](Oc1cc(-c2cnn(C3CCNCC3)c2)cnc1N)c1c(Cl)ccc(F)c1Cl [Crizotinib] + O=C(Nc1cccc(Cl)c1)Nc1ncc(CCNc2ncnc3ccsc23)s1 [SNS314] (first compound 0.2 µM, partner dose 0.0008 µM)
cell count (MeWo): 92.9%
cell count (RPMI7951): 117%
cell count (RVH-421): 113%
cell count (SkMel28): 88.7%
cell count (SkMel2): 101%
cell count (SkMel30): 113%
cell count (SkMel5): 96.4%
cell count (UACC257): 79.2%
cell count (UACC62): 92.8%

CS(=O)(=O)CCNCc1ccc(-c2ccc3ncnc(Nc4ccc(OCc5cccc(F)c5)c(Cl)c4)c3c2)o1 [lapatinib] + Cc1nc(Nc2ncc(C(=O)Nc3c(C)cccc3Cl)s2)cc(N2CCN(CCO)CC2)n1 [dasatanib] (first compound 0.8 µM, partner dose 0.004 µM)
cell count (MZ2-MEL): 80.9%
cell count (MeWo): 95.9%
cell count (RPMI7951): 78%
cell count (RVH-421): 83.3%
cell count (SkMel28): 85.7%
cell count (SkMel2): 92.8%
cell count (SkMel30): 106%
cell count (UACC62): 72.5%

CN1CCN(c2ccc3nc(-c4c(N)c5c(F)cccc5[nH]c4=O)[nH]c3c2)CC1 [Dovitinib] + Cn1c(Nc2ccc(C(F)(F)F)cc2)nc2cc(Oc3ccnc(-c4ncc(C(F)(F)F)[nH]4)c3)ccc21 [CHIR265] (first compound 0.1 µM, partner dose 0.08 µM)
cell count (MZ2-MEL): 71.1%
cell count (MeWo): 76.7%
cell count (RPMI7951): 61.3%
cell count (RVH-421): 70%
cell count (SkMel28): 56.7%
cell count (SkMel2): 85.4%
cell count (SkMel30): 52.1%
cell count (UACC62): 65.9%

CS(=O)(=O)CCNCc1ccc(-c2ccc3ncnc(Nc4ccc(OCc5cccc(F)c5)c(Cl)c4)c3c2)o1 [lapatinib] + COc1cc(Nc2ncc(F)c(Nc3ccc4c(n3)NC(=O)C(C)(C)O4)n2)cc(OC)c1OC [Tamatinib] (first compound 0.8 µM, partner dose 0.4 µM)
cell count (MeWo): 90.3%
cell count (RPMI7951): 65.9%
cell count (RVH-421): 66.6%
cell count (SkMel28): 104%
cell count (SkMel2): 91.8%
cell count (SkMel30): 101%
cell count (SkMel5): 102%
cell count (UACC257): 97.1%
cell count (UACC62): 82.5%
